Reference: article PMC12820563
This is one part of the list. The list includes weakly bound sequences.

Each sequence was assayed against T1, MBP-FoxP3dN (UniProt Q99JB6) (assay: PD-seq (MBP pull-down with sequencing)). Settings: 20 mM Tris-HCl pH 7.5, 100 mM NaCl, 1.5 mM MgCl2, 0.4 uM protein, 0.1 uM dsDNA library, 30 min, room temperature, amylose pull-down; high values mean tight binding; double strand, one strand shown.
T1 sequence: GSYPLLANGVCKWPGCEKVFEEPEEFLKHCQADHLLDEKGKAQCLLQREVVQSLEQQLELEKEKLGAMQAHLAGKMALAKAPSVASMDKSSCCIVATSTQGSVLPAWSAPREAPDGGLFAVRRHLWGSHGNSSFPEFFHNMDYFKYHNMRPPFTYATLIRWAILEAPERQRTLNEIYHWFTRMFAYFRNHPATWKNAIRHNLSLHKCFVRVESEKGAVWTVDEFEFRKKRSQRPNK
Work on “GATGATTGTTCTCCCAGCTGATGAATTTAGTACCTCGAGTAAACAAATTTTCCTAATCTTTCTGTTCAAGCGCCATCTAC” yielded a binding signal (RPM ratio (pull-down/input)) of 0.966.
Sequence “GATGATTGTTCTCCCAGCTGATGAATTTGTCACATCGAGTAAACAAATTTTCCTAATCTTTCTGTTCAAGCGCCATCTAC” has a binding signal (RPM ratio (pull-down/input)) of 3.14.
For “GATGATTGTTCTCCCAGCTGATGAATTTGACGAGTCGAGTAAACAAATTTTCCTAATCTTTCTGTTCAAGCGCCATCTAC”, the binding signal (RPM ratio (pull-down/input)) was 0.235.
“GATGATTGTTCTCCCAGCTGATGAATTGTGATAATCGAGTAAACAAATTTTCCTAATCTTTCTGTTCAAGCGCCATCTAC” was tested, and the binding signal (RPM ratio (pull-down/input)) was 0.868.
“GATGATTGTTCTCCCAGCTGATGAATTCCGTGACTCGAGTAAACAAATTTTCCTAATCTTTCTGTTCAAGCGCCATCTAC” was tested, and the binding signal (RPM ratio (pull-down/input)) was 0.812.
In the case of “GATGATTGTTCTCCCAGCTGATGAATTTGATGACTCGAGTAAACAAATTTTCCTAATCTTTCTGTTCAAGCGCCATCTAC”, the binding signal (RPM ratio (pull-down/input)) is reported as 3.97.
Sequence “GATGATTGTTCTCCCAGCTGATGAATTCGGGAGCTCGAGTAAACAAATTTTCCTAATCTTTCTGTTCAAGCGCCATCTAC” has a binding signal (RPM ratio (pull-down/input)) of 0.201.
Work on “GATGATTGTTCTCCCAGCTGATGAATTGCCCACCTCGAGTAAACAAATTTTCCTAATCTTTCTGTTCAAGCGCCATCTAC” yielded a binding signal (RPM ratio (pull-down/input)) of 0.45.
Sequence “GATGATTGTTCTCCCAGCTGATGAATTACTAAGATCGAGTAAACAAATTTTCCTAATCTTTCTGTTCAAGCGCCATCTAC” has a binding signal (RPM ratio (pull-down/input)) of 0.254.
Work on “GATGATTGTTCTCCCAGCTGATGAATTCTCTCCATCGAGTAAACAAATTTTCCTAATCTTTCTGTTCAAGCGCCATCTAC” yielded a binding signal (RPM ratio (pull-down/input)) of 0.223.
“GATGATTGTTCTCCCAGCTGATGAATTATCGGGATCGAGTAAACAAATTTTCCTAATCTTTCTGTTCAAGCGCCATCTAC” gave a binding signal (RPM ratio (pull-down/input)) of 0.275.
“GATGATTGTTCTCCCAGCTGATGAATTAAGTATCTCGAGTAAACAAATTTTCCTAATCTTTCTGTTCAAGCGCCATCTAC” showed a binding signal (RPM ratio (pull-down/input)) of 4.17.
For “GATGATTGTTCTCCCAGCTGATGAATTCATTACTTCGAGTAAACAAATTTTCCTAATCTTTCTGTTCAAGCGCCATCTAC”, the binding signal (RPM ratio (pull-down/input)) was 0.462.
With “GATGATTGTTCTCCCAGCTGATGAATTCTTGGTCTCGAGTAAACAAATTTTCCTAATCTTTCTGTTCAAGCGCCATCTAC” the binding signal (RPM ratio (pull-down/input)) was 0.35.
Work on “GATGATTGTTCTCCCAGCTGATGAATTATAATGTTCGAGTAAACAAATTTTCCTAATCTTTCTGTTCAAGCGCCATCTAC” yielded a binding signal (RPM ratio (pull-down/input)) of 1.16.
For “GATGATTGTTCTCCCAGCTGATGAATTACGCACGTCGAGTAAACAAATTTTCCTAATCTTTCTGTTCAAGCGCCATCTAC”, the binding signal (RPM ratio (pull-down/input)) was 1.75.
With “GATGATTGTTCTCCCAGCTGATGAATTAGGTTATTCGAGTAAACAAATTTTCCTAATCTTTCTGTTCAAGCGCCATCTAC” the binding signal (RPM ratio (pull-down/input)) was 2.12.
For “GATGATTGTTCTCCCAGCTGATGAATTCATTTTGTCGAGTAAACAAATTTTCCTAATCTTTCTGTTCAAGCGCCATCTAC”, the binding signal (RPM ratio (pull-down/input)) was 1.9.
“GATGATTGTTCTCCCAGCTGATGAATTCCTTTCTTCGAGTAAACAAATTTTCCTAATCTTTCTGTTCAAGCGCCATCTAC” gave a binding signal (RPM ratio (pull-down/input)) of 0.297.
With “GATGATTGTTCTCCCAGCTGATGAATTCAATAGTTCGAGTAAACAAATTTTCCTAATCTTTCTGTTCAAGCGCCATCTAC” the binding signal (RPM ratio (pull-down/input)) was 1.5.
Work on “GATGATTGTTCTCCCAGCTGATGAATTATAGCAGTCGAGTAAACAAATTTTCCTAATCTTTCTGTTCAAGCGCCATCTAC” yielded a binding signal (RPM ratio (pull-down/input)) of 0.531.
Sequence “GATGATTGTTCTCCCAGCTGATGAATTGGACCCTTCGAGTAAACAAATTTTCCTAATCTTTCTGTTCAAGCGCCATCTAC” has a binding signal (RPM ratio (pull-down/input)) of 0.255.
For “GATGATTGTTCTCCCAGCTGATGAATTTGGGGACTCGAGTAAACAAATTTTCCTAATCTTTCTGTTCAAGCGCCATCTAC”, the binding signal (RPM ratio (pull-down/input)) was 0.516.
“GATGATTGTTCTCCCAGCTGATGAATTAACCCTATCGAGTAAACAAATTTTCCTAATCTTTCTGTTCAAGCGCCATCTAC” showed a binding signal (RPM ratio (pull-down/input)) of 0.322.
“GATGATTGTTCTCCCAGCTGATGAATTGTCTAACTCGAGTAAACAAATTTTCCTAATCTTTCTGTTCAAGCGCCATCTAC” was tested, and the binding signal (RPM ratio (pull-down/input)) was 0.395.
For “GATGATTGTTCTCCCAGCTGATGAATTACAAATTTCGAGTAAACAAATTTTCCTAATCTTTCTGTTCAAGCGCCATCTAC”, the binding signal (RPM ratio (pull-down/input)) was 0.415.
“GATGATTGTTCTCCCAGCTGATGAATTACACTTCTCGAGTAAACAAATTTTCCTAATCTTTCTGTTCAAGCGCCATCTAC” was tested, and the binding signal (RPM ratio (pull-down/input)) was 0.637.
In the case of “GATGATTGTTCTCCCAGCTGATGAATTACGTCATTCGAGTAAACAAATTTTCCTAATCTTTCTGTTCAAGCGCCATCTAC”, the binding signal (RPM ratio (pull-down/input)) is reported as 1.44.
Sequence “GATGATTGTTCTCCCAGCTGATGAATTAGACCGCTCGAGTAAACAAATTTTCCTAATCTTTCTGTTCAAGCGCCATCTAC” has a binding signal (RPM ratio (pull-down/input)) of 0.274.
Sequence “GATGATTGTTCTCCCAGCTGATGAATTGCTCTGATCGAGTAAACAAATTTTCCTAATCTTTCTGTTCAAGCGCCATCTAC” has a binding signal (RPM ratio (pull-down/input)) of 0.445.
“GATGATTGTTCTCCCAGCTGATGAATTCGATCACTCGAGTAAACAAATTTTCCTAATCTTTCTGTTCAAGCGCCATCTAC” was tested, and the binding signal (RPM ratio (pull-down/input)) was 0.483.
Work on “GATGATTGTTCTCCCAGCTGATGAATTGTTTTGATCGAGTAAACAAATTTTCCTAATCTTTCTGTTCAAGCGCCATCTAC” yielded a binding signal (RPM ratio (pull-down/input)) of 4.03.
“GATGATTGTTCTCCCAGCTGATGAATTCGTATTATCGAGTAAACAAATTTTCCTAATCTTTCTGTTCAAGCGCCATCTAC” showed a binding signal (RPM ratio (pull-down/input)) of 1.51.
“GATGATTGTTCTCCCAGCTGATGAATTCTGCCGATCGAGTAAACAAATTTTCCTAATCTTTCTGTTCAAGCGCCATCTAC” was tested, and the binding signal (RPM ratio (pull-down/input)) was 0.58.
In the case of “GATGATTGTTCTCCCAGCTGATGAATTGTTGAGTTCGAGTAAACAAATTTTCCTAATCTTTCTGTTCAAGCGCCATCTAC”, the binding signal (RPM ratio (pull-down/input)) is reported as 0.89.
Sequence “GATGATTGTTCTCCCAGCTGATGAATTACACAATTCGAGTAAACAAATTTTCCTAATCTTTCTGTTCAAGCGCCATCTAC” has a binding signal (RPM ratio (pull-down/input)) of 0.716.
Work on “GATGATTGTTCTCCCAGCTGATGAATTCCAGTCATCGAGTAAACAAATTTTCCTAATCTTTCTGTTCAAGCGCCATCTAC” yielded a binding signal (RPM ratio (pull-down/input)) of 0.476.
“GATGATTGTTCTCCCAGCTGATGAATTGTGCATCTCGAGTAAACAAATTTTCCTAATCTTTCTGTTCAAGCGCCATCTAC” was tested, and the binding signal (RPM ratio (pull-down/input)) was 8.03.
“GATGATTGTTCTCCCAGCTGATGAATTCGACTTTTCGAGTAAACAAATTTTCCTAATCTTTCTGTTCAAGCGCCATCTAC” gave a binding signal (RPM ratio (pull-down/input)) of 0.443.
In the case of “GATGATTGTTCTCCCAGCTGATGAATTCAACTTGTCGAGTAAACAAATTTTCCTAATCTTTCTGTTCAAGCGCCATCTAC”, the binding signal (RPM ratio (pull-down/input)) is reported as 0.487.
